# Source: the supplement of paper PMC3334620
# Over roughly 33,000 sequences, “E-score (-0.5 to 0.5)” has its median near -0.032; the highest 2% begin near 0.36. The list shows a part of the results.
# Molecular target: T1, Sko1 (UniProt Q02100)
# T1 sequence: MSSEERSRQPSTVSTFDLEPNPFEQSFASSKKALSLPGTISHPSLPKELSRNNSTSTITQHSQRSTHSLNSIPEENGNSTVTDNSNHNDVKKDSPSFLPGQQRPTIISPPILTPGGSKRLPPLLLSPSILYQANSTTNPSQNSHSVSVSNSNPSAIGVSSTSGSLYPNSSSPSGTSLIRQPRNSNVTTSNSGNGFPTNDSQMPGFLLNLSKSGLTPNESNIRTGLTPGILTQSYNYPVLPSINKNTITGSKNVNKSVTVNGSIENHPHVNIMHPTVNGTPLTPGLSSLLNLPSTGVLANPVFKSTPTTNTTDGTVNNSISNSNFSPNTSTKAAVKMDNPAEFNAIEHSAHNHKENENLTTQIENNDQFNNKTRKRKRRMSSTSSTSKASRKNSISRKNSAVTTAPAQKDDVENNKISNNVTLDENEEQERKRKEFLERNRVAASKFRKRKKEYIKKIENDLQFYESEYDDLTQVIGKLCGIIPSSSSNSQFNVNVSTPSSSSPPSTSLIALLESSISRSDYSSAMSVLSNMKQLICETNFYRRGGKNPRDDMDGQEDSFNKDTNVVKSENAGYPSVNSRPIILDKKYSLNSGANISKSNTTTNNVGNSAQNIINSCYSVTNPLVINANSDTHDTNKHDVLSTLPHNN
# Assay: PBM E-score (8-mer binding enrichment) (E-score (-0.5 to 0.5)); higher = stronger / more preferred TF binding; most listed sequences are background and not binding sites
# Conditions: protein concentration: 200 nM; construct: GST-full length
# Method in brief: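 E-scores (a modified Wilcoxon-Mann-Whitney statistic) were assigned by the Universal PBM Analysis Suite to every ungapped eight-base word pooled with its reverse complement. The input came from universal all-10-mer Agilent arrays made double-stranded by primer extension and probed with GST-tagged yeast transcription factors at about 100-200 nM. Fluorescent anti-GST detected bound protein, and masliner normalised the scans.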
row,Sequence,PBM E-score
1,AGCCCGCG,-0.238
2,TGTCGGAA,-0.136
3,GATCGCCA,-0.27
4,CATCCATG,-0.0119
5,GACCGGAA,-0.215
6,CAAACGAC,0.11
7,AGGGCGAA,-0.185
8,AAAGCGTG,-0.0117
9,CCTGAGGC,-0.278
10,CCAGCCCA,-0.306
11,CGCTTTAC,0.2
12,GCCAAGGA,-0.0705
13,AACGGGGA,-0.232
14,CGCGGACA,-0.0824
15,CGTGTTTA,0.322
16,GCCTGCGA,-0.245
17,TCATCCAA,0.232
18,AATGAACT,0.0989
19,GCAATTGA,0.0583
20,GCGGGAGA,-0.2
21,CTGTTAGC,-0.139
22,ACTAAATC,0.102

row,Sequence,PBM E-score
1,CACACGGC,-0.0173
2,CAGTATAG,-0.0527
3,AAAGATGA,0.219
4,AGATTGAG,0.17
5,GGAAGTGA,0.119
6,CAATCACC,-0.0727
7,AAGATGAC,0.337
8,CGCGCGCC,0.147
9,CAAAACGC,0.162
10,ACAGAGGC,-0.261
11,ATAAGTAC,-0.0609
12,CCAAGGCG,-0.271
13,ATTAAGGG,-0.167
14,GACACCGC,-0.2
15,CCGCAGAC,-0.28
16,CGTTTTTC,0.182
17,AAGAAGGA,-0.0217
18,TGAGTGCA,-0.0765
19,AAGGATAT,0.145
20,GAGTCAAC,-0.0377
21,ACACCGCA,-0.17
22,CCCGCAAG,-0.317

row,Sequence,PBM E-score
1,AATTAGGA,0.0897
2,AACACCCG,0.00585
3,AATTTTTA,0.182
4,ACACGTAC,0.419
5,CAACGGTC,-0.134
6,AGAGGCGA,-0.212
7,AGAGGCAA,-0.0224
8,GCCCCATA,-0.119
9,ACCTTCTA,-0.163
10,GAGCAATC,-0.0678
11,GGAGGCCA,-0.306
12,CCTACGCG,0.117
13,AGTGCTCG,-0.0672
14,GCTAGGAA,-0.135
15,CCAACAGA,-0.143
16,CACCTACC,-0.0877
17,CAGAAAAA,0.067
18,CATTCTAG,0.0818
19,ATCTCGAG,-0.0182
20,GGGCTAAA,-0.182
21,AGCGGGGA,-0.159
22,CGGGTTTA,-0.0485

row,Sequence,PBM E-score
1,ACACCGCT,-0.242
2,CTCGTGAC,0.222
3,ACGACCAA,0.18
4,GGACCTAC,-0.106
5,CACAGAGG,-0.0682
6,ACACTTCG,0.185
7,CCTGGCCG,-0.199
8,AAATTTCT,0.00551
9,CCTATGCA,-0.039
10,AGGTAATG,0.112
11,GCTTGGAA,-0.0775
12,AATTTAAA,0.137
13,GACCACGC,0.0665
14,CCACACGC,0.0227
15,TCTCGCCA,-0.0542
16,CAAGTAAA,0.0923
17,CGTTGTTC,0.151
18,ACCTGGTC,-0.211
19,CGTGCTAC,0.208
20,CTGGTAGA,-0.0603
21,ACAATTTC,0.0832
22,CGGGGTAA,0.0163

row,Sequence,PBM E-score
1,CCATCCAA,-0.101
2,CATTCGGA,0.188
3,ATCTGCCG,-0.0838
4,CTCTGTAA,-0.131
5,GCTTCCGA,-0.0736
6,ATATGGTG,-0.0276
7,GACCAGTA,-0.214
8,CCAACTTC,-0.0206
9,GTGAATTA,0.162
10,ACCCCCAG,-0.345
11,AGCTTCCA,-0.177
12,CTTAGAGC,-0.127
13,ACAGAGGT,-0.158
14,CGTTGAAC,-0.041
15,GGGTGGTA,-0.121
16,AGCGATAA,0.00521
17,CGTAACAC,0.374
18,ACAGGCCT,-0.292
19,ACCCCAGT,-0.167
20,AGATGATG,0.308
21,CAGGTAGA,-0.0818
22,CAGGAAGG,-0.261
